Source: PubChem BioAssay (NCI)
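Protocol summary: plate cells (96-well), add compound at 5 concentrations, incubate 48 h, interpolate endpoints linearly. The concentration for 50% growth inhibition is given as GI50. TGI: total growth inhibition.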

The compounds below were run on NCI-H322M lung (assay: DTP human tumour cell line panel, 48 h).

Point of comparison: `Nc1nc(N)c2c(n1)NC(c1ccccc1)CC(c1ccc(Nc3nc(NCCO)nc(Nc4ccc(Cl)cc4)n3)cc1)=N2` (stereo unspecified), TGI 3.04 µM. Against it:
- C=C1C(=O)O[C@@H]2/C=C(/C)C3=CC(=O)[C@@](C)(C[C@H](OC(=O)/C(C)=C\C)[C@@H]12)O3 — higher, > 32.5 µM
- COc1ccc(/C=N/NC2=NC3C(S2)N(C)C(=O)N3C)cc1 (stereo unspecified) — higher, > 100 µM
- Cc1ccc2c(n1)C(=O)C(Cl)=C(Nc1ccc(C(C)C)cc1)C2=O — 6.9-fold higher, 21 µM
- CS(=O)(=O)c1nccc(-c2c(-c3cccc(OCc4ccc(Cl)c(C(F)(F)F)c4)c3)nc3sccn23)n1 — 3.8-fold higher, 11.5 µM
- CN1CCC(n2cc(Nc3ncc4c(=O)n(-c5c(Cl)cccc5Cl)cc(Br)c4n3)cn2)CC1 — 4.7-fold higher, 14.3 µM

Point of comparison: `Cc1ccc2c(n1)C(=O)C(Cl)=C(Nc1ccc(C(C)C)cc1)C2=O`, GI50 7.45 µM. Against it:
- COc1ccc(/C=N/NC2=NC3C(S2)N(C)C(=O)N3C)cc1 (stereo unspecified) — 1.7-fold higher, 12.5 µM
- CS(=O)(=O)c1nccc(-c2c(-c3cccc(OCc4ccc(Cl)c(C(F)(F)F)c4)c3)nc3sccn23)n1 — within 1.5-fold, 5.51 µM
- CN1CCC(n2cc(Nc3ncc4c(=O)n(-c5c(Cl)cccc5Cl)cc(Br)c4n3)cn2)CC1 — 23-fold lower, 0.326 µM
- Nc1nc(N)c2c(n1)NC(c1ccccc1)CC(c1ccc(Nc3nc(NCCO)nc(Nc4ccc(Cl)cc4)n3)cc1)=N2 (stereo unspecified) — 4.6-fold lower, 1.63 µM
